In ChEMBL document CHEMBL4888484, “Replenishing the malaria drug discovery pipeline: Screening and hit evaluation of the MMV Hit Generation Library 1 (HGL1) against asexual blood stage Plasmodium falciparum ,using a nano luciferase reporter read-out” (2022):
The campaign covered roughly 150,000 compounds. About 540 (0.36%) showed an effect of 50% or more. Some of the results follow.

system: Plasmodium falciparum; assay: Primary screen in NF54 nanoGlo assay, in single point, at 2uM, 72h; a lower Z score goes with more inhibition; assay type: functional, Erythrocyte; details: timepoint 72 hour

Row | Compound | % Inhibition | Z score
1 | Cc1cccc(C)c1/N=C1/N=C(N2CCOCC2)N(c2ccc(Cl)cc2)C12CCCCC2 | 10% | -1.64
2 | Cc1cccc(O[C@@H](C)C(=O)NC2CCN(C3CC3)CC2)c1 | -3% | 0.41
3 | Cc1cc(C)n(Cc2c(C(=O)NCc3cccc(Br)c3)noc2C)n1 | 4% | -0.39
4 | COc1cccc(F)c1[C@H](C)NC(=O)N(C)Cc1cnccn1 | 8% | -0.79
5 | CC(C)n1c(CN2CCN(C)CC2)nc2cc(NC(=O)c3ccco3)ccc21 | -16% | 1.41
6 | CN(C)c1ncccc1C(=O)N1CC(S(=O)(=O)N2CCOCC2)C1 | -3% | 0.53
7 | Cc1nc(CC(=O)NC2CCCC2)sc1C(=O)NCc1ccccc1 | -1% | 0.11
8 | Cc1ccc(C)c(NC(=O)N2CCC3(CC2)c2nccn2CCN3C)c1 | -9% | 1.16
9 | O=S(=O)(c1cccc(Cl)c1)N1CCC(c2cn(Cc3cccc(F)c3)c3ccccc23)CC1 | -17% | 1.51
10 | Cc1ccc(-c2c3c(=O)n(C)c(=O)n(C)c3c3n2-c2ccccc2N[C@@H]3c2cccc(C)c2)cc1 | -5% | 0.91
11 | O=C(CN1CCCCCC1)N1CCc2sccc2C1 | -8% | 1.38
12 | Cc1cc(N2CC(C)(C(N)=O)C2)c2cccc(F)c2n1 | -7% | 1.4
13 | Cc1cccc(CN2CC(c3nc(CCN(C)C(=O)C4CCOCC4)no3)C2)c1 | 5% | -0.62
14 | CC1CCCC(NC(=O)C2N(C(C)c3ccccc3)C(=O)[C@@H]3C(C(=O)Nc4cc(Cl)cc(Cl)c4)[C@@H]4C=C[C@]23O4)C1C (stereo partly specified) | -10% | 1.13
15 | C[C@H](NC(=O)CC1CC(C)(C)NC(C)(C)C1)c1ccc(O)cc1 | -16% | 1.57
16 | CCCN(CC(=O)N1CCc2sccc2[C@@H]1COc1ccc(Cl)cc1)C(=O)c1cccc(F)c1 | -12% | 1.89
17 | Cn1cc(C(=O)N2CCC3(CC2)CC(=O)N(CCCc2ccccc2)C3)cn1 | -11% | 1.4
18 | O=c1c2c(ncn1CCc1nsc3ccccc13)NCCC2 | -1% | 0.2
19 | O=C1CC2(CCN(C(=O)c3cnccn3)CC2)CN1Cc1ccc(F)c(F)c1 | 2% | -0.21
20 | COCc1ccc(C(=O)N[C@H](C#N)C(C)(C)C)o1 | 0% | 0.03
21 | O=C(c1ccc(Cl)cc1)c1ccccc1C(=O)n1nnc2ccccc21 | -1% | 0.19

Row | Compound | % Inhibition | Z score
22 | Cc1cccnc1[C@@H](NC(=O)c1c[nH]c2ncccc12)C(C)(C)C | -2% | 0.27
23 | COc1ccc(C(NC(=O)[C@H]2CCCN(C(=O)N(C)C)C2)c2ccc(OC)cc2)cc1 | 11% | -2.05
24 | Cc1cccc2c(CN3CCC(O)(CO)CC3)c(-c3ccccc3)[nH]c12 | 3% | -0.43
25 | Cc1cccc(C(=O)NCCOC(N)=O)c1Cl | 4% | -0.77
26 | C#CCn1cnc(-c2ccccc2)c1NC(=O)CCc1ccc(C(C)C)cc1 | -7% | 0.8
27 | Cc1[nH]nc(CCC(=O)N2CCC(CN3CCCC3=O)CC2)c1C | -6% | 0.73
28 | O=S(=O)(c1ccco1)N1CC[C@H](Oc2ccccc2)C1 | 35% | -1.14
29 | CN(Cc1cnc(NS(=O)(=O)c2ccccc2)nc1)C1CCOCC1 | -23% | 2.25
30 | Cc1ncn(CC(=O)N2CC[C@H](Oc3ccc(N(C)C)nn3)C2)c(=O)c1C | -12% | 1.4
31 | CC(C)(CO)NC(=O)C[C@H](O)c1cc(Cl)cc(Cl)c1 | 6% | -0.5
32 | Cn1cc(-c2cc(CNC(=O)c3ccccc3)ccn2)cn1 | -10% | 1.48
33 | C[C@H]1c2ccsc2CCN1c1ncnc2nc[nH]c12 | -6% | 0.99
34 | CC1(C)C[C@@H](NC(=O)[C@H]2CC[C@H](Cn3cnc4ccccc4c3=O)CC2)CCO1 | -6% | 0.79
35 | CCC[C@H]1CN(c2cc(C)c3cccc(OC)c3n2)C[C@@H]1NC(C)=O | -2% | 0.29
36 | Cn1cccc1-c1nnc(C2(c3ccccc3)CCOCC2)o1 | -7% | 1
37 | Cc1ccc(C)c(NC(=O)CC(=O)NCCN2CCCOC2=O)c1 | -9% | 1.41
38 | O=C(c1cnc(O)cc1C(F)(F)F)N1CCc2nccnc2C1 | -13% | 1.56
39 | O=S(=O)(c1cccc(-c2nnc(-c3ccccc3Br)o2)c1)N1CCCCC1 | 1% | -0.08
40 | CC(C)(C)c1ccc(-c2cc3nc(-c4ccncc4)cc(C(F)(F)F)n3n2)cc1 | 29% | -3.27
41 | CCn1nc(-c2nn3c(Cc4c(C)noc4C)nnc3s2)cc1C | -4% | 0.49
42 | O=C(NC1CCCCC1)[C@@]1(CCO)CC12CCN(c1ncccn1)CC2 | -5% | 0.95

Row | Compound | % Inhibition | Z score
43 | CCc1nsc(NCCNC(CC)CC)n1 | 8% | -1.42
44 | CC(=O)N1CCN(c2nc(C3CC3)nc(C)c2Cc2cccc(C)c2)CC1 | -12% | 1.59
45 | COCC1(CNC(=O)[C@@H](C)CN2CCOCC2)CCC1 | 2% | -0.31
46 | CC1(C)[C@H]2CC=C(CN3CCN(C(=O)c4nc[nH]n4)CC3)[C@@H]1C2 | -10% | 1.71
47 | CC1(C)C2CN(c3ncc(C(F)(F)F)s3)CC21 (stereo unspecified) | -3% | 0.39
48 | NC(=O)CN(CCC1CCCCC1)C[C@H]1CCCS(=O)(=O)C1 | -8% | 1.4
49 | NC(=O)NCc1cc(F)c(Cl)cc1F | -7% | 0.66
50 | CC(NC(=O)c1ccc2c(c1)OCCO2)C1CCCO1 (stereo unspecified) | -7% | 0.98
51 | O=C(NC[C@H]1CCCN1c1nccs1)C1CCCC1 | -14% | 2.71
52 | COCCn1ccn2nc(C(F)(F)F)cc2c1=O | -3% | 0.56
53 | COc1cc(CN2C[C@@H]3CC[C@H]2CN(C(=O)c2ccncc2)C3)ccc1F | -8% | 1.47
54 | CCCN1C(=O)N[C@@H](CC(=O)N(C)CCc2c(C)n[nH]c2C)C1=O | -3% | 0.54
55 | O=C(NCc1cncc(N2CCCC2=O)c1)c1cncc(Br)c1 | -8% | 1.47
56 | CC(C)CN1CCn2cc(C(=O)NCc3cccc(Br)c3)nc2C1 | 3% | -0.51
57 | Cc1n[nH]c(C)c1CC(=O)N1CCC2(C=Cc3ccccc3O2)CC1 | -1% | 0.15
58 | Cc1ccc(OCc2ncnn2C)cc1F | -13% | 1.21
59 | Cc1c(C(=O)N[C@H]2CCOC2)cnn1-c1ncc2c(n1)-c1ccccc1CCC2 | 1% | -0.19
60 | Cc1nc([C@@H]2CCCN2S(=O)(=O)C2(C)CC2)[nH]c1C | 6% | -0.66
61 | CN(CC(N)=O)Cc1cc2n(n1)CCN(Cc1ccc(-c3ccco3)cc1)C2 | -11% | 1.51
62 | O=C(Nc1ccc(Oc2ccccc2)cc1)O[C@@H]1CO[C@H]2[C@@H]1OC[C@@H]2NC(=O)c1ccccn1 | 0% | 0.06
63 | [O-][S+]1CCN(Cc2ccc(F)cc2)CC1 | -17% | 2.06

Row | Compound | % Inhibition | Z score
64 | CC1CCC(CNc2cnc(C#N)cn2)CC1 (stereo unspecified) | 3% | -0.41
65 | Cc1noc(C)c1Cn1cc(C2CCCCC2)nn1 | -13% | 1.97
66 | Cc1nc(C(=O)NCc2cccnc2N2CCN(C)CC2)c(C)s1 | -2% | 0.2
67 | COC(=O)c1cnc(N(C)S(=O)(=O)c2cnn(C(C)C)c2)s1 | -29% | 3.4
68 | NC(=O)c1cc(O)ccc1C(F)(F)F | -1% | 0.1
69 | COCCN1CCC[C@H](CNC(=O)N2CCC(c3ccccc3)CC2)C1 | -6% | 1.1
70 | COc1ccccc1CCNC(=O)[C@@H]1CCCN1c1nc(C)c2ccc(S(C)(=O)=O)cc2n1 | 2% | -0.37
71 | CCC(=O)c1cccc(S(=O)(=O)N2CCN(Cc3c(C)nc4n3CCCC4)CC2)c1 | -8% | 0.8
72 | CC(C)(C)C[C@H](NCc1ccncc1)c1cccnc1 | -1% | 0.14
73 | COc1ccc(C2=NO[C@](CC(=O)Nc3ccccc3)(C(=O)O)C2)cc1 | -27% | 3.17
74 | CCc1nc(-c2ccccc2)nc(N2CCN(C(=O)c3ccc(F)cc3)CC2)c1Cc1cccc(Cl)c1 | -4% | 0.43
75 | Cc1ccc(S(=O)(=O)Nc2ccc(N3CCN(Cc4ccc(F)cc4F)CC3)nc2)cc1 | 1% | -0.22
76 | CC(C)c1nc(CN(C)[C@@H](C)C(=O)Nc2nccs2)cs1 | 30% | -3.93
77 | N#CCCn1ncc2c(N3CCO[C@H](c4ccccc4)C3)ncnc21 | 8% | -1.07
78 | COCCCn1c(-c2ccccn2)nnc1N1CC[C@H](C2CCOCC2)C1 | 7% | -0.77
79 | C#CCNC(=O)C1C2CCC(C2)N1C(=O)c1ccccc1 (stereo unspecified) | 6% | -0.88
80 | O=C(c1ccccc1)N1CC(COc2ccccc2)OC(c2ccc(Cl)cc2Cl)O1 (stereo unspecified) | -12% | 1.31
81 | CC(C)[C@@]1(O)CN(S(=O)(=O)N(C)Cc2ccccc2)C[C@@H]1C | -9% | 1.74
82 | CC(=O)N1CCc2ccc(NC(=O)c3c(-c4ccccc4Cl)noc3C)cc21 | -13% | 2.21
83 | O=C1CCCc2nc(NC(=O)c3cccc4c3CCCC4)ccc21 | -11% | 1.42
